Assay results taken from paper PMC2855512, “Interaction of connexin43 and protein kinase C-delta during FGF2 signaling” (BMC Biochemistry, 2010).

Target: T1, protein kinase C-delta (mouse (endogenous in MC3T3), UniProt P28867 1-674)
T1 construct: protein kinase C-delta (PKCδ), novel PKC; endogenous in MC3T3-E1 mouse osteoblasts; also called PKCδ; source: endogenous, MC3T3 whole cell extract
Assay: co-IP; endogenous proteins in MC3T3 whole cell lysates (500 ug; IP buffer 50 mM Tris pH 8.0, 150 mM NaCl, 1.0% Triton-X-100), 2 ug antibody overnight at 4°C, protein A/G-agarose, five washes in cold PBS; western blot of supernatant and bead fractions; cells untreated or treated with 5 ng/ml FGF2 (0, 10, 20 min)
Settings: partners not purified

Chain of protein kinase C-delta (P28867 whole entry, stated change not applied): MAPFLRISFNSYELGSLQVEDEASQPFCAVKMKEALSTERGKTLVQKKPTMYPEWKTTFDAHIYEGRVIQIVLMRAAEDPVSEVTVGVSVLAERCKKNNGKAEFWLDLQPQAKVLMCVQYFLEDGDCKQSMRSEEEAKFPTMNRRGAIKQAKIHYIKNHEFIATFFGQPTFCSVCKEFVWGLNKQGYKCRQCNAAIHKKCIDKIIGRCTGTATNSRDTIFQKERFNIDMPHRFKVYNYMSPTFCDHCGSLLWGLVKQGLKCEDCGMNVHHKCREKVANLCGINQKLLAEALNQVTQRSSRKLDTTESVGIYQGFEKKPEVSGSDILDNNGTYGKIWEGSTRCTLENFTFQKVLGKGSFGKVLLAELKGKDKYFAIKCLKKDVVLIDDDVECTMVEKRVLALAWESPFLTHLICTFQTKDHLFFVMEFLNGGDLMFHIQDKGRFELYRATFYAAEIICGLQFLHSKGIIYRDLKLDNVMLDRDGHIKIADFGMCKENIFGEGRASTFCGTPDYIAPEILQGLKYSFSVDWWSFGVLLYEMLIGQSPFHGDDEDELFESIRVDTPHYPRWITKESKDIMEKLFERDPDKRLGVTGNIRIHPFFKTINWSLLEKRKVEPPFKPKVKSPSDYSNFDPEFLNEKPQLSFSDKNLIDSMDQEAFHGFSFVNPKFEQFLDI

B1: connexin43 (natural protein)
chain: not shown
notes: connexin43 (Cx43), gap junction protein encoded by GJA1; endogenous in MC3T3-E1 mouse osteoblasts; Total Cx43 as detected with anti-Cx43 antibodies; the ~46 kD phosphorylated form is written apart as m6; also called Cx43; non-phosphorylated (NP) form, ~43 kD; source: endogenous, MC3T3 whole cell extract
fold decrease in co-immunoprecipitated Cx43 versus input after 20 minutes of FGF2, relative to untreated: ~1.5 fold | fold increase in co-immunoprecipitated Cx43 versus input after 10 minutes of FGF2, relative to untreated: ~1.5 fold
